Among all 310,000 compounds or so, about 14,000 (4.5%) showed an effect of 50% or more. Effects have a minus sign here. The list shows a part of the results.

This is an account of results in article PMC4336329 (PLoS ONE, 2015).
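Note: peak tail current of the secondary pulse compared with the same well before compound.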

human ether-à-go-go-related gene (hERG) potassium channel, sequence (Q12809 whole entry, looked up): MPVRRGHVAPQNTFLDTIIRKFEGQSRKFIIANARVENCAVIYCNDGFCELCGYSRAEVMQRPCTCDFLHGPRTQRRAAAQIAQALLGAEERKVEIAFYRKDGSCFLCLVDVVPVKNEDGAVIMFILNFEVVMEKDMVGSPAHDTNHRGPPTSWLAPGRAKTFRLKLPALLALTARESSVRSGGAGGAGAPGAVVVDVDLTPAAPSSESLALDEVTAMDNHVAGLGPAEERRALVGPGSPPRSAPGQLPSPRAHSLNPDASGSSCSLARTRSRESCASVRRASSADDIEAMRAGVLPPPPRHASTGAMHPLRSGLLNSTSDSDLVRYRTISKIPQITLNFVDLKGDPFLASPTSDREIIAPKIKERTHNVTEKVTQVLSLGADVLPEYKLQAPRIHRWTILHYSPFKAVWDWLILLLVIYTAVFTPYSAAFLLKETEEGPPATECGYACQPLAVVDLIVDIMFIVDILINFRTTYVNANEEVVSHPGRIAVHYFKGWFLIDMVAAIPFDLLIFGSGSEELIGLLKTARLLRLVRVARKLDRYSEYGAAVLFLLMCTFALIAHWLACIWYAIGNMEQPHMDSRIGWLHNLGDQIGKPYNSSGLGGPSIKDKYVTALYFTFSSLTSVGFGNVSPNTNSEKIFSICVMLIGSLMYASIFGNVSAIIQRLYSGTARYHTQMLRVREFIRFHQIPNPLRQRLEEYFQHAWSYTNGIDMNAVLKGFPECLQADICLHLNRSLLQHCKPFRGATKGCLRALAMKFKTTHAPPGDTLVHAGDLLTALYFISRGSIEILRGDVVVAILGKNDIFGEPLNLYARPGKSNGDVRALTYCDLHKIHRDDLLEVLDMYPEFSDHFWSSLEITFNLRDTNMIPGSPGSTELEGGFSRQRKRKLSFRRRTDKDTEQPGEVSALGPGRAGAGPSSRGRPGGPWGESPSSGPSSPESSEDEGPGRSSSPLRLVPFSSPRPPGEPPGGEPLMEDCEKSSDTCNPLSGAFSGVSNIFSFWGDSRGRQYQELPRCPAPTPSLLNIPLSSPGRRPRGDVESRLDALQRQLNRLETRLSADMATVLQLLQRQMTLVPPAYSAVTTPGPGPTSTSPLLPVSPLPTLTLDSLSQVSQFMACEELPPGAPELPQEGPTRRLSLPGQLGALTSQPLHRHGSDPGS

This assay addresses human ether-à-go-go-related gene (hERG) potassium channel (human, UniProt Q12809). In words: primary screen, population patch clamp on CHO cells stably expressing hERG.
Turning to `COc1ccc2c(c1)cc(C(=O)N[C@H](C(=O)N1CCC[C@H]1C(=O)O)C(C)C)n2C`, the “hERG current change (%, negative = inhibition) at 10uM” value turned out to be 13.5%. With `O=C(N/N=C/C=C/c1ccc2c(c1)OCO2)C(O)c1ccccc1` (stereo not drawn) the figure was -2.54%. In the case of `COc1ccccc1CN(Cc1nc2ccccc2c(=O)[nH]1)S(=O)(=O)c1ccc2ccccc2c1`, the “hERG current change (%, negative = inhibition) at 10uM” value is on record as 16.6%. Take `Cc1nnc(SCC(=O)Nc2c(C)n(C)n(-c3ccccc3)c2=O)n1Cc1ccccc1`: the “hERG current change (%, negative = inhibition) at 10uM” value is recorded as 3.96%. With `Cc1nc2ccccc2n1CSc1ccccc1` the figure was -23.7%; with `CS(=O)(=O)c1ncc(CO)n1Cc1ccccc1`, 5.69%. On to `COc1ccc(-n2c(C)cc(-c3cn4cccc(C)c4n3)c2C)cc1`, for which the “hERG current change (%, negative = inhibition) at 10uM” value is -11.9%. With `Cc1cc(C)cc(NC(=O)N2CCCC2C(=O)NCc2ccco2)c1` (stereo not drawn), the “hERG current change (%, negative = inhibition) at 10uM” value is -13.7%. In the case of `Nn1c(C2CCCCC2)nc2ccccc2c1=O`, the “hERG current change (%, negative = inhibition) at 10uM” value is listed as -14.1%. As for `CCCc1c(C(=O)N/N=C/c2cccc(OCc3ccc(F)cc3)c2)nnn1-c1nonc1N`, the “hERG current change (%, negative = inhibition) at 10uM” value stood at 5.94%. On to `Fc1ccccc1CNC(=S)NC1CCCCC1`, for which the “hERG current change (%, negative = inhibition) at 10uM” value was determined as 15.6%. With `Cc1ccccc1-n1c(SCC(=O)Nc2ccccc2)nc2nc3c(cc2c1=O)CCCC3` the figure was 9.25%; with `CCSc1nc(-c2cccnc2)ccc1C#N`, -35.3%. Regarding `O=C(/C=C\c1ccccc1)Nc1nccs1`, the “hERG current change (%, negative = inhibition) at 10uM” value was found to be 17.6%.

For the molecule `CCOc1cc2[nH]c(=S)n(CCC(=O)NCc3ccc(OC)cc3)c(=O)c2cc1OCC`, the “hERG current change (%, negative = inhibition) at 10uM” value was 10.5%. With `Cc1ccccc1-n1nc(C)c2cc(C(=O)N3CCOCC3)sc21` the figure was -1.28%; with `Cc1c(C(=O)Nc2ccc3c(c2)OCO3)oc2ccccc12`, 9.56%; with `CN(C(=O)CC1C(=O)NCCN1Cc1ccc(F)c(F)c1)C1CCCCC1` (stereo not drawn), 5.45%. With `CCOc1ccc(N2C(=O)C3ON(c4ccccc4)C(c4cccs4)C3C2=O)cc1` (stereo not drawn) the figure was 7.35%.

Turning to `Cc1cc(-c2nnc(SCC(=O)Nc3ccc(Cl)cn3)n2N)n[nH]1`, the “hERG current change (%, negative = inhibition) at 10uM” value is -10.4%. For `Cc1ccc(C)c(NC(=O)c2cc(=O)c3ccccc3o2)c1`, the “hERG current change (%, negative = inhibition) at 10uM” value is on record as -16.4%.

Regarding `O=C(O)Cc1sc(-c2ccccc2)nc1-c1ccccc1`, the “hERG current change (%, negative = inhibition) at 10uM” value was 13.7%. Take `N#CCC(=O)Nc1ccc(C(=O)OCC(=O)NC(=O)Cc2ccccc2)cc1`: the “hERG current change (%, negative = inhibition) at 10uM” value was found to be 13%. Consider `CN(C)S(=O)(=O)c1ccc(C(=O)NCCOc2ccc(F)cc2)cc1`, for which the “hERG current change (%, negative = inhibition) at 10uM” value is given as -27.3%. With `CC(=O)Nc1ccc(C(=O)OCC(=O)N(Cc2ccccc2)C(C)(C)C)cc1` the figure was -8.51%.

Turning to `Cc1cc(C(F)(F)F)nn1Cc1n[nH]c(=S)n1-c1ccc(F)cc1`, the “hERG current change (%, negative = inhibition) at 10uM” value was 14.6%.

Take `CC(C)N1C(=O)CCC1C(=O)NCCc1ccccc1` (stereo not drawn): the “hERG current change (%, negative = inhibition) at 10uM” value is -6.11%.

On to `O=C(CCCCO)CCCCCCCC[C@H]1N[C@H](CO)[C@H](O)[C@@H]1O[C@@H]1O[C@H](CO)[C@@H](O)[C@H](O)[C@H]1O`, for which the “hERG current change (%, negative = inhibition) at 10uM” value amounted to 6.58%. With `CN(C(=O)COC(=O)c1cc([N+](=O)[O-])ccc1Cl)c1ccccc1` the figure was -19.7%. With `Cc1ccc(/C=C/C(=O)Nc2ccncc2)o1` the figure was 12.8%. Take `COc1ccc(C2CC(c3ccccc3)=NN2c2ccc(N)cc2)cc1` (stereo not drawn): the “hERG current change (%, negative = inhibition) at 10uM” value came out at 6.71%.

As for `O=C1c2ccccc2C(=O)c2c1ccc1c(=O)n(-c3ccccc3)[nH]c21`, the “hERG current change (%, negative = inhibition) at 10uM” value is listed as 7.63%. Turning to `O=C(Nc1ccc(C(=O)N2CCCC2)cc1)c1ccccc1[N+](=O)[O-]`, the “hERG current change (%, negative = inhibition) at 10uM” value came out at 17.7%. With `N#Cc1sc(NCc2ccccn2)nc1Cl` the figure was 7.54%. With `CCc1ccc(S(=O)(=O)Nc2cccc(-c3ccc4nnc(C)n4n3)c2)s1` the figure was -11.6%; with `O=C(NCCO)C1COc2ccccc2O1` (stereo not drawn), 15.5%; with `Cc1ccc2c(c1)N(Cc1ccc3c(c1)OCO3)C(=O)C(C)O2` (stereo not drawn), -13.5%.

As to `COC(=O)C(C)Sc1ncnc2c1nnn2-c1ccc(F)cc1` (stereo not drawn), the “hERG current change (%, negative = inhibition) at 10uM” value is given as -7.56%. With `C/C(=N\N=c1/sc2ccccc2n1C)c1ccc(N2CCOCC2)cc1` the figure was 18.9%; with `Cc1ccc(S(=O)(=O)NCC(c2cccnc2)N(C)C)cc1` (stereo not drawn), 7.44%; with `COc1ccccc1OCC#CCSc1ncccn1`, 15.2%. With `COc1cccc(Cn2nnc(C(=O)Nc3cc(C)ccc3OC)c2N)c1` the figure was 8.11%. As to `Cc1ccccc1CSCCC(=O)NCCc1ccccc1`, the “hERG current change (%, negative = inhibition) at 10uM” value was determined as 0.596%. Turning to `Cc1ccc(S(=O)(=O)Nc2cccc3ncccc23)s1`, the “hERG current change (%, negative = inhibition) at 10uM” value is on record as -18.7%. With `CCOc1ccc(NC(=O)c2cccnc2C(=O)O)cc1` the figure was 8.94%; with `CCOc1ccc(N2C(=O)C3CCCN3C2=S)cc1` (stereo not drawn), 8.27%; with `O=C(CN1C(=O)NC2(CCCCC2)C1=O)Nc1ccccc1N1CCCC1`, 24.2%.

For `COc1ccc2oc(C(=O)Nc3ccc(C)cn3)c(C)c2c1`, the “hERG current change (%, negative = inhibition) at 10uM” value is reported as 0.82%. As for `Cc1c(NC(=O)c2ccc([N+](=O)[O-])o2)cccc1-c1nc2ncccc2o1`, the “hERG current change (%, negative = inhibition) at 10uM” value is given as -11.8%. Regarding `CC(C)(C)C(=O)/C=c1\[nH]c(=O)/c(=C\c2ccccc2F)s1`, the “hERG current change (%, negative = inhibition) at 10uM” value turned out to be 12.2%. As to `COc1cccc(/C=C/C(=O)OCC(=O)NCc2ccco2)c1`, the “hERG current change (%, negative = inhibition) at 10uM” value is on record as -12%. With `CC(C)(C)C1c2[nH]c3ccccc3c2CCN1Cc1cccc(OCCO)c1` (stereo not drawn) the figure was 1.16%. `O=C(Nc1nnc(-c2ccc(Br)cc2)o1)c1ccco1`: the “hERG current change (%, negative = inhibition) at 10uM” value worked out at 3.75%. With `COc1ccc(NC(=O)CCC2CCCCC2)cc1S(=O)(=O)N1CCCCC1`, the “hERG current change (%, negative = inhibition) at 10uM” value is recorded as -14.1%. With `O=C(NCCc1ccccc1F)C1CCC(=O)N(CCCN2CCCC2=O)C1` (stereo not drawn) the figure was -7.84%. As for `COc1cc(CN2CCNC(=O)C2CC(=O)N2CCCO2)cc(OC)c1` (stereo not drawn), the “hERG current change (%, negative = inhibition) at 10uM” value worked out at 28.5%.

Regarding `COc1ccc(N2CC(C(=O)Nc3c4c(nn3-c3ccc(OC)cc3)CS(=O)(=O)C4)CC2=O)cc1` (stereo not drawn), the “hERG current change (%, negative = inhibition) at 10uM” value stood at 21.4%.
